# PubChem BioAssay (Tox21)
# Values joined by “and” are separate entries in the source; they are usually repeats but may differ in a detail not shown here. Equal entries are not always repeated. The inconclusive results got no clear call from the source; some entries with a clear call stand among them for comparison. For some assays here: Potencies of inconclusive entries are doubtful fits and often do not repeat. Where a structure was tested more than once in an assay, its records may differ in their call. Active and inactive are the calls of the source. Unless noted, calls follow the shape of the dose curve; as a rule, active = well fitted curve in the direction sought with a large enough effect in the repeat runs; inconclusive = weak or mixed curves; inactive = no such curve, though single readings can be large; an effect the other way counts as inactive or inconclusive.
# Tests used:
# [1] = qHTS RealTime-Glo MT Cell Viability Assay in HepG2 cells - 0 hour (AID 1224889); also: nearly all actives have a fitted effect of over 50% in size; also: potency is read from the fitted curve at half-maximal effect; as to activity change, negative = cytotoxicity: % is scaled to controls: 0 for no effect and ±100 for the full control effect
# In short: (§1)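 HepG2 cells (600/well) were dispensed with RealTime-Glo reagents, incubated 5 h at 37 °C, then treated with compounds in DMSO for up to 40 h. Nonlytic NanoLuc luminescence reflecting viable cells was read at each stated time point.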
# [2] = qHTS assay to identify small molecule antagonists of the constitutive androstane receptor (CAR) signaling pathway - cell viability counter screen (AID 1224837); also: nearly all actives have a fitted effect of over 45% in size; also: potency is read from the fitted curve at half-maximal effect; as to activity change, negative = cytotoxicity: % is scaled to controls: 0 for no effect and ±100 for the full control effect
# In short: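 To flag cytotoxic false antagonists, HepG2 hCAR/CYP2B6-2.2kb cells were treated 23 hr with 15-concentration compound series and 50 nM CITCO at 37 C/5% CO2; CellTiter-Fluor fluorescence was the measured end point.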
# [3] = A CellTox Green Cytotoxicity Assay to monitor cytotoxicity in HepG2 cells - 8 hour (AID 1224890); also: nearly all actives have a fitted effect of over 45% in size; also: potency is read from the fitted curve at half-maximal effect
# In short: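 Measurements at 0, 8, 16, 24, 32 and 40 h of treatment captured CellTox Green fluorescence in HepG2 cells that had been co-plated with reagent and preincubated 5 h at 37 C/5% CO2.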
# [4] = target: Acetylcholinesterase (Homo sapiens) (UniProt P22303); experiment: Acetylcholinesterase (AChE) small molecule antagonists: fluorescence cell-based qHTS assay (AID 1347398; calls by dose curve; also: nearly all actives have a fitted effect of over 50% in size; also: potency is read from the fitted curve at half-maximal effect); details: Potency: AChE activity
# In short: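 Cellular AChE activity read as thiocholine from acetylthiocholine hydrolysis, detected by Thiolite Green fluorescence at 490/520 nm after 40 min at room temperature. Compounds were pre-incubated 30 min at 37 C on adherent SH-SY5Y cells.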
# [5] = qHTS RealTime-Glo MT Cell Viability Assay in HepG2 cells - 16 hour (AID 1224885); also: % is scaled to controls: 0 for no effect and ±100 for the full control effect; nearly all actives have a fitted effect of over 50% in size
# In short: as §1
# [6] = qHTS assay for small molecules that induce genotoxicity in human embryonic kidney cells expressing luciferase-tagged ATAD5 - cell viability (AID 651634; calls by dose curve; also: nearly all actives have a fitted effect of over 25% in size; also: potency is read from the fitted curve at half-maximal effect)
# In short: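 15.5 hr compound or vehicle exposure of HEK293T cells expressing luciferase-tagged ATAD5 at 37C; live-cell protease activity is read by fluorescence after 30 min of CellTiter-Fluor.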
# [7] = qHTS assay to identify small molecule agonists of the androgen receptor (AR) signaling pathway in the presence of an antagonist - cell viability counter screen (AID 1259379);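 also: MDA-kb2 human breast cancer cells carrying an MMTV luciferase reporter; % is scaled to controls: 0 for no effect and ±100 for the full control effect; nearly all actives have a fitted effect of over 25% in size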
# In short: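 MDA-kb2 viability measured by CellTiter-Fluor fluorescence in the same wells as the luciferase signal; nilutamide 3.0uM final; 15-point compound titration; 16 hr at 37C.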
# [8] = qHTS assay to identify small molecule antagonists of the TGF-beta/Smad signaling pathway (AID 1346924; active = well fitted inhibition curve with a large enough effect in the signal ratio in the repeat runs, not every such curve was filed as active; inconclusive = weak or mixed curves; the % refers to the signal ratio); details: SBE-bla HEK293T, TGF-beta/Smad reporter, beta-lactamase ratio; activity, negative = inhibition: at 76.8 µM (top of the series) unless noted
# In short: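 Read-out was FRET-substrate fluorescence (405 nm excitation; 460 and 530 nm emission) after 2 h at room temperature. Before that, cells carrying a Smad-binding-element beta-lactamase reporter in HEK 293T had been stimulated 5 h at 37 C with TGF-beta1 (0.25 ng/mL addition solution) in the presence of test compound.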
# [9] = qHTS assay to identify small molecule agonists of the hypoxia (HIF-1) signaling pathway (AID 1224846; active = well fitted activation curve with a large enough effect in the signal ratio in the repeat runs, not every such curve was filed as active; inconclusive = weak or mixed curves; the % refers to the signal ratio; also: potency is read from the fitted curve at half-maximal effect); details: HRE-bla ME-180 cells, beta-lactamase ratio, 17 h; activation: at 76.8 µM (top of the series) unless noted
# In short: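 Reporter induction in HRE-bla ME-180 cells is taken as agonism: cells sit 5 hrs after plating, receive compounds or DMSO only, incubate 17 hrs at 37C under 5% CO2, and are loaded with CCF4-AM for beta-lactamase FRET measurement.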
# [10] = qHTS assay to identify small molecule antagonists of the glucocorticoid receptor (GR) signaling pathway - cell viability counter screen (AID 720693); details: GR-bla HeLa viability, CellTiter-Glo luminescence, 18 h, with 5 nM dexamethasone present; viability change, negative = cytotoxic: at 58.5 µM (top of the series) unless noted; also: nearly all actives have a fitted effect of over 55% in size; also: potency is read from the fitted curve at half-maximal effect; as to viability change, negative = cytotoxic: % is scaled to controls: 0 for no effect and ±100 for the full control effect
# [11] = target: Luciferin 4-monooxygenase (Photinus pyralis) (UniProt P08659); experiment: qHTS assay to identify small molecule inhibitors of firefly luciferase (AID 1224835); also: nearly all actives have a fitted effect of over 25% in size; also: potency is read from the fitted curve at half-maximal effect
# In short: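 Inhibition of purified Photinus luciferase is measured by luminescence. Substrate levels (D-luciferin, ATP) sit at their KM values. Each compound is tested in a concentration series.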
# [12] = qHTS assay to identify small molecule antagonists of the estrogen related receptor signaling pathway with the pleiotropic PPARgamma coactivator (PGC) from Tox21 10K library - cell viability counter screen (AID 1224840; active = well fitted cell-killing curve with a large enough effect in the repeat runs, not every such curve was filed as active; inconclusive = weak or mixed curves, or effect the other way; inactive = no such curve, though single readings can be large or run the other way; also: nearly all actives have a fitted effect of over 40% in size; also: potency is read from the fitted curve at half-maximal effect)
# In short: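 Seeded PGC/ERR cells (2,000/well, 6 h, 37 C/5% CO2) get compound by pin tool; 17.5 h incubation at 37 C; CellTiter-Fluor added, 30 min, fluorescence measured.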
# [13] = qHTS assay to identify small molecule antagonists of the estrogen related receptor (ERR) signaling pathway from Tox21 library - cell viability counter screen (AID 1224834); also: nearly all actives have a fitted effect of over 30% in size; also: potency is read from the fitted curve at half-maximal effect
# In short: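 Seeded ERR cells were rested 6 h at 37 C/5% CO2 before compounds, positive and negative controls or DMSO were added. Incubation continued for 17.5 h, and viability was then quantified by CellTiter-Fluor fluorescence.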
# [14] = target: Vitamin D3 receptor (Homo sapiens) (UniProt P11473); experiment: qHTS assay to identify small molecule agonists of the vitamin D receptor (VDR) signaling pathway (AID 743222; calls by dose curve; also: potency is read from the fitted curve at half-maximal effect); details: HEK293T VDR-UAS-bla, beta-lactamase FRET ratio, 16 h; activation: at 63.5 µM (top of the series) unless noted
# In short: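 Using LiveBLAzer B/G FRET detection, agonism was scored in VDR-bla cells exposed overnight (16 h, 37C) to DMSO-dissolved compounds; substrate incubation was 2 h at room temperature.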
# [15] = qHTS assay to identify small molecule antagonists of the estrogen receptor beta (ER-beta) signaling pathway - cell viability counter screen (AID 1259382); also: potency is read from the fitted curve at half-maximal effect; nearly all actives have a fitted effect of over 55% in size
# In short: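 Readout: luminescence, CellTiter-Glo, same wells as bla assay. System: ER-beta-UAS-bla GripTite HEK293T, 2% charcoal-stripped FBS. Exposure: compounds plus 1nM 17-beta-estradiol, 16 hr, 37C.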
# [16] = qHTS assay to identify small molecule agonists of the estrogen receptor alpha (ER-alpha) signaling pathway in the presence of an antagonist - cell viability counter screen (AID 1259386);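 also: cells exposed to compounds for 22 h at 37 °C before the viability read; nearly all actives have a fitted effect of over 30% in size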; also: potency is read from the fitted curve at half-maximal effect
# In short: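 The test measures whether compounds kill ER-alpha reporter cells (VM7Luc4E2) under antagonist co-treatment (ICI-182,780, 10.0nM). Fluorescence from CellTiter-Fluor is read after a 22hr exposure.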
# [17] = qHTS assay to identify aromatase inhibitors - cell viability counter screen (AID 743084); details: MCF-7 aro ERE viability, CellTiter-Fluor, 24 h; activity change, negative = cytotoxicity: at 70.3 µM (top of the series);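 also: cells stimulated with testosterone during compound exposure; % is scaled to controls: 0 for no effect and ±100 for the full control effect; nearly all actives have a fitted effect of over 55% in size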
# [18] = qHTS RealTime-Glo MT Cell Viability Assay in HepG2 cells - 32 hour (AID 1224877); also: nearly all actives have a fitted effect of over 55% in size; also: potency is read from the fitted curve at half-maximal effect
# In short: as §1
# [19] = A CellTox Green Cytotoxicity Assay to monitor cytotoxicity in HEK293 cells - 16 hour (AID 1224888); also: nearly all actives have a fitted effect of over 35% in size; also: potency is read from the fitted curve at half-maximal effect
# In short: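 Tox21 screen in HEK293: membrane-impermeant cyanine dye fluoresces on binding dead-cell DNA; compound pinned 5 h post-seeding, plates held at 37 C, signal read repeatedly through 40 h.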
# [20] = target: Androgen receptor (Homo sapiens) (UniProt P10275); experiment: qHTS assay to identify small molecule agonists of the androgen receptor (AR) signaling pathway (AID 743036; active = well fitted activation curve with a large enough effect in the signal ratio in the repeat runs, with a control signal flat, not every such curve was filed as active; inconclusive = weak or mixed curves, or effect the other way; inactive = no such curve, though single readings can be large or run the other way; the % refers to the signal ratio; also: % is scaled to controls: 0 for no effect and ±100 for the full control effect); details: HEK293 AR-UAS-bla GripTite, beta-lactamase FRET ratio, 16 h; activation: at 62.4 µM (top of the series) unless noted
# In short: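 Activation was read as beta-lactamase FRET signal from LiveBLAzer B/G substrate, added for 2 h at room temperature. Before that, GeneBLAzer AR-UAS-bla GripTite (HEK293) cells had 16 h compound exposure at 37C.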
# Tags tell the direction and shape of the fitted curve or compound fluorescence and quenching.
# UniProt P11473, sequence (P11473 whole entry, looked up): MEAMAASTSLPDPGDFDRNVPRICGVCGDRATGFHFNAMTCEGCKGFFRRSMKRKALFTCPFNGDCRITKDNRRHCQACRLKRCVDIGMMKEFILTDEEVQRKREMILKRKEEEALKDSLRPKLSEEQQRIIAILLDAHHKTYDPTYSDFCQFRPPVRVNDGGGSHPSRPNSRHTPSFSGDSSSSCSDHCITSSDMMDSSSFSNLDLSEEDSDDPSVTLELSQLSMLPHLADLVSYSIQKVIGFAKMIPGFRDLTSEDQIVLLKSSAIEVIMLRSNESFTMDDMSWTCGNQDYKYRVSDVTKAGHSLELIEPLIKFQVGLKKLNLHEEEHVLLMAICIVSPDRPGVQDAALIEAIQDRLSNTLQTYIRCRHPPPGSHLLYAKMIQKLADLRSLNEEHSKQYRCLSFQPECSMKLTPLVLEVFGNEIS
# UniProt P08659, sequence (P08659 whole entry, looked up): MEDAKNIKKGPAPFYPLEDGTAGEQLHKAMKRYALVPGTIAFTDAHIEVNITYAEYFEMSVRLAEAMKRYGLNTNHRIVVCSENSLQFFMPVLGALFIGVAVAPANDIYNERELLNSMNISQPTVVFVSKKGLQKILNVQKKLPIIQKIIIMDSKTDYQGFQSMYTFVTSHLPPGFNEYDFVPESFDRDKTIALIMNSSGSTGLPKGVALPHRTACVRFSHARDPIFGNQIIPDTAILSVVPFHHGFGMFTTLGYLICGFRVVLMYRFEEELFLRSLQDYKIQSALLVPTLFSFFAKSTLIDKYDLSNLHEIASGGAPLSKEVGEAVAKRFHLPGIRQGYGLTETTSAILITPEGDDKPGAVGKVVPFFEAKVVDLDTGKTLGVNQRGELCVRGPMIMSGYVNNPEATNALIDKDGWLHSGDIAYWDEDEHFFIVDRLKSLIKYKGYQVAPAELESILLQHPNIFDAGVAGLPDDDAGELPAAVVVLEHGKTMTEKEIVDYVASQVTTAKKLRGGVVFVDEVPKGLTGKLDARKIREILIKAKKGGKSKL
# UniProt P22303, sequence (P22303 whole entry, looked up): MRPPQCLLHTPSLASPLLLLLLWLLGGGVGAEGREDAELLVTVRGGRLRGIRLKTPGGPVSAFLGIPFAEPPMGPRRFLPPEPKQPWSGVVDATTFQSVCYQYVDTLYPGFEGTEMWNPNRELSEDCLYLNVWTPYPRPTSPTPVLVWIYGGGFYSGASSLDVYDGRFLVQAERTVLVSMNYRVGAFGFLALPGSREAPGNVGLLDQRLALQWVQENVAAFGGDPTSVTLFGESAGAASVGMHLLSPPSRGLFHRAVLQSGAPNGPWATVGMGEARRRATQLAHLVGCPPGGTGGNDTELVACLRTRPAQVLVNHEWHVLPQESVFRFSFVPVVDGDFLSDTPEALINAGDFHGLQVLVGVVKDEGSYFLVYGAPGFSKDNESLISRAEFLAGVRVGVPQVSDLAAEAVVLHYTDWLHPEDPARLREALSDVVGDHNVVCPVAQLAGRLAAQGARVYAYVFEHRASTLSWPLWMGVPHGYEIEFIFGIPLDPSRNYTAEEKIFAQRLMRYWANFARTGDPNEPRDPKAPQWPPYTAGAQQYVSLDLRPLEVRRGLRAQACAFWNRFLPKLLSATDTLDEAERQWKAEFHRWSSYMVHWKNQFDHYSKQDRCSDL
# UniProt P10275, sequence (P10275 whole entry, looked up): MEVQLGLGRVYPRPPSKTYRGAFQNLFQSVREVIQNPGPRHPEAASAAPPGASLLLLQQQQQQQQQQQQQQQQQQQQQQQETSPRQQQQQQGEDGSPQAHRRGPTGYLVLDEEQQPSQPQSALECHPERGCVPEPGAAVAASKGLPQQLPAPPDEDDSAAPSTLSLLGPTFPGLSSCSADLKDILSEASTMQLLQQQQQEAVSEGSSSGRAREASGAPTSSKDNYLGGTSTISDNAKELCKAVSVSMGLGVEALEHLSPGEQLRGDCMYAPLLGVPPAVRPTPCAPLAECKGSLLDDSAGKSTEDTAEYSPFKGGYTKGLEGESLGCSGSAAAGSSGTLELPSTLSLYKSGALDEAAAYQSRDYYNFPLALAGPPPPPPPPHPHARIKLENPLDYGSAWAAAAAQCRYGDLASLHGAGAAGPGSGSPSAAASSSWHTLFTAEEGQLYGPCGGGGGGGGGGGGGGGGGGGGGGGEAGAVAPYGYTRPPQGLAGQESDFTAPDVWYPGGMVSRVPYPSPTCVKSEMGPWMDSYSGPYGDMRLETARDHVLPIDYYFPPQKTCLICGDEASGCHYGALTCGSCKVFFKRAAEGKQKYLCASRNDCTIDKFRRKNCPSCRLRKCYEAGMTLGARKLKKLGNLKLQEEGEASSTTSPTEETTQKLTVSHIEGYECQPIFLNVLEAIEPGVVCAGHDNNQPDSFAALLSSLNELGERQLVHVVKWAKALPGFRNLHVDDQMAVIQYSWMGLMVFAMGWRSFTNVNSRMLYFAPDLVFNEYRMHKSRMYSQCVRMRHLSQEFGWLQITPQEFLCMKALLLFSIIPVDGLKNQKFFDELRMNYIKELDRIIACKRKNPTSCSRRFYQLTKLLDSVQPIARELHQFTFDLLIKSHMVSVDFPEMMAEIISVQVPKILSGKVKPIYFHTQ
compound,measurement,setting,value
O=C(O)CF,Potency,[1],inactive
CCc1ccc(C2CCNCC2)cc1,Potency,[2],inactive
CCCCCCC(=O)CCCCCC/C=C/C[C@@H](O)[C@H](O)[C@@](N)(CO)C(=O)O,Potency,[3],"inconclusive: 4.65 µM [activator, single point]"
Nc1ncn[nH]1,Potency,[4],"inconclusive: 58.4 µM [inhibitor, partial curve, poor fit]"
N#Cc1ccc(N(CC(N)=O)CC(F)(F)F)cc1C(F)(F)F,Potency,[5],inactive
C[C@]1(O)CC[C@H]2[C@@H]3CCC4=CC(=O)CC[C@]4(C)[C@@]3(F)[C@@H](O)C[C@@]21C,Potency,[6],"inconclusive: 43.5 µM [falling, partial curve]"
same,Potency,[1],active: 12.4 µM
same,Potency,[7],inactive
same,"activity, negative = inhibition",[8],inconclusive: 30.9%
N#Cc1cccnc1,Potency,[1],inactive
C(CCOCC1CO1)COCC1CO1 (stereo not given),Potency,[9],"inconclusive: 54.1 µM [rising, partial curve, poor fit]"
Cc1ccc2cc(C)ccc2c1,Potency,[6],inactive
same,Potency,[10],inactive
same,Potency,[11],"inconclusive: 79.5 µM [inhibitor, partial curve]"
CC(C)(N)Cc1ccccc1Cl,Potency,[12],inactive
same,Potency,[7],inactive
N#Cc1ccc(O)cc1,Potency,[5],inactive
O=C1Nc2ccc(Cl)cc2C(c2ccccc2)=NC1O (stereo not given),Potency,[11],inactive
CCCOC(=O)Cc1ccc(OCC(=O)N(CC)CC)c(OC)c1,Potency,[13],inactive
C=C(C)C(=O)OCC(CC)CCCC (stereo not given),Potency,[14],"inconclusive: 13.8 µM [rising, partial curve, poor fit]"
same,Potency,[13],active: 55.5 µM
same,Potency,[11],inactive
same,Potency,[2],"inconclusive: 69.9 µM [cytotoxic, partial curve, poor fit]"
same,Potency,[15],"inconclusive: 69.9 µM [cytotoxic, partial curve, poor fit]"
same,Potency,[16],"inconclusive: 49.5 µM [cytotoxic, partial curve]"
CCOP(=S)(OCC)SCCSCC,Potency,[6],inactive
same,"activity, negative = inhibition",[8],inconclusive: 7.28%
same,Potency,[4],"inconclusive: 73.2 µM [inhibitor, partial curve, poor fit]"
CCOP(=S)(OCC)SCCl,"activity change, negative = cytotoxicity",[17],inconclusive: -32.4% [cytotoxic]
same,Potency,[3],inactive
CCC(C)(C)c1cc(-n2nc3ccccc3n2)c(O)c(C(C)(C)CC)c1,Potency,[10],"inconclusive: 55.8 µM [rising, single point]"
same,Potency,[13],"inconclusive: 22 µM [cytotoxic, full curve]"
same,Potency,[2],"inconclusive: 27.7 µM [cytotoxic, partial curve, poor fit]"
same,Potency,[12],"inconclusive: 31.1 µM [cytotoxic, full curve]"
CN(C)C(=O)Cl,Potency,[1],"inconclusive: 1.1 µM [cytotoxic, single point]"
same,Potency,[3],inactive
CC(C)[N+](C)(CCC(C(N)=O)(c1ccccc1)c1ccccc1)C(C)C,Potency,[18],active: 21.3 µM
CCC(=O)O[C@@H]1C=C2CCC3C(CCC4(C)C3CC[C@@H]4OC(=O)CC)C2CC1 (stereo not given in full),Potency,[19],inactive
same,Potency,[3],"inconclusive: 2.68 µM [activator, full curve, poor fit]"
O=C(Cl)c1ccc(Cl)cc1,Potency,[1],"inconclusive: 24.5 µM [cytotoxic, full curve, poor fit]"
COP(=S)(OC)Oc1ccc(S(=O)(=O)N(C)C)cc1,Potency,[7],inactive
same,Potency,[4],"inconclusive: 63.3 µM [inhibitor, partial curve] and inconclusive: 34.7 µM [inhibitor, partial curve, poor fit]"
CC(Oc1cc(Cl)c(Cl)cc1Cl)C(=O)O (stereo not given),activation,[14],inconclusive: -9.97%
same,Potency,[7],inactive
same,Potency,[15],"inconclusive: 43.4 µM [cytotoxic, partial curve, poor fit]"
Clc1ccc2ccccc2c1,Potency,[20],inactive
same,activation,[14],inconclusive: -1.67% [at 81.1 µM]
same,Potency,[19],"inconclusive: 56.6 µM [activator, single point]"
same,Potency,[3],inactive
same,Potency,[16],inactive
C#CC(C)(C)O,Potency,[17],inactive
NC(=O)c1cc([N+](=O)[O-])cc([N+](=O)[O-])c1,Potency,[18],inactive
CN1COCN(Cc2cnc(Cl)s2)/C1=N\[N+](=O)[O-],Potency,[4],inactive
CCN[C@H](C)Cc1cccc(C(F)(F)F)c1,Potency,[16],"inconclusive: 108 µM [cytotoxic, partial curve, poor fit]"
CCSC(=O)N(CC)C1CCCCC1,Potency,[2],inactive
CC(CC(C(N)=O)(c1ccccc1)c1ccccc1)N(C)C (stereo not given),Potency,[11],inactive
Cc1nnc2n1-c1sc(CCC(=O)N3CCOCC3)cc1C(c1ccccc1Cl)=NC2,Potency,[14],inconclusive: 15 µM [partial curve]
CCOC(=O)/C=C(C)/C=C/C[C@@H](C)CCCC(C)C,Potency,[1],inactive
same,Potency,[15],"inconclusive: 61.1 µM [cytotoxic, partial curve, poor fit]"
ClC(Cl)C(Cl)(Cl)Cl,Potency,[12],inactive
CC1=C(C(=O)O)N2C(=O)[C@@H](N)[C@H]2SC1,activation,[9],inactive: -0.576% [at 15.8 µM]
CN1[C@@H]2CC[C@H]1CC(O)C2 (stereo not given in full),Potency,[13],inactive
same,Potency,[12],inactive
C[C@]12CC[C@H]3[C@@H](CCC4=CC(=O)CC[C@@H]43)[C@@H]1CC[C@@H]2O,Potency,[12],"inconclusive: 76.3 µM [cytotoxic, partial curve, poor fit]"
same,Potency,[4],inactive
